Data on 25 compounds can be found in paper PMC4336329 (PLoS ONE, 2015).

About 14,000 (4.5%) of roughly 310,000 compounds showed an effect of 50% or more. The effect is printed as a negative number. Some of the results follow.
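Also: peak tail current of the secondary pulse compared with the same well before compound.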

The target in the experiment is human ether-à-go-go-related gene (hERG) potassium channel (human, UniProt Q12809). In words: primary screen, population patch clamp on CHO cells stably expressing hERG.
Chain of human ether-à-go-go-related gene (hERG) potassium channel (Q12809 whole entry, looked up): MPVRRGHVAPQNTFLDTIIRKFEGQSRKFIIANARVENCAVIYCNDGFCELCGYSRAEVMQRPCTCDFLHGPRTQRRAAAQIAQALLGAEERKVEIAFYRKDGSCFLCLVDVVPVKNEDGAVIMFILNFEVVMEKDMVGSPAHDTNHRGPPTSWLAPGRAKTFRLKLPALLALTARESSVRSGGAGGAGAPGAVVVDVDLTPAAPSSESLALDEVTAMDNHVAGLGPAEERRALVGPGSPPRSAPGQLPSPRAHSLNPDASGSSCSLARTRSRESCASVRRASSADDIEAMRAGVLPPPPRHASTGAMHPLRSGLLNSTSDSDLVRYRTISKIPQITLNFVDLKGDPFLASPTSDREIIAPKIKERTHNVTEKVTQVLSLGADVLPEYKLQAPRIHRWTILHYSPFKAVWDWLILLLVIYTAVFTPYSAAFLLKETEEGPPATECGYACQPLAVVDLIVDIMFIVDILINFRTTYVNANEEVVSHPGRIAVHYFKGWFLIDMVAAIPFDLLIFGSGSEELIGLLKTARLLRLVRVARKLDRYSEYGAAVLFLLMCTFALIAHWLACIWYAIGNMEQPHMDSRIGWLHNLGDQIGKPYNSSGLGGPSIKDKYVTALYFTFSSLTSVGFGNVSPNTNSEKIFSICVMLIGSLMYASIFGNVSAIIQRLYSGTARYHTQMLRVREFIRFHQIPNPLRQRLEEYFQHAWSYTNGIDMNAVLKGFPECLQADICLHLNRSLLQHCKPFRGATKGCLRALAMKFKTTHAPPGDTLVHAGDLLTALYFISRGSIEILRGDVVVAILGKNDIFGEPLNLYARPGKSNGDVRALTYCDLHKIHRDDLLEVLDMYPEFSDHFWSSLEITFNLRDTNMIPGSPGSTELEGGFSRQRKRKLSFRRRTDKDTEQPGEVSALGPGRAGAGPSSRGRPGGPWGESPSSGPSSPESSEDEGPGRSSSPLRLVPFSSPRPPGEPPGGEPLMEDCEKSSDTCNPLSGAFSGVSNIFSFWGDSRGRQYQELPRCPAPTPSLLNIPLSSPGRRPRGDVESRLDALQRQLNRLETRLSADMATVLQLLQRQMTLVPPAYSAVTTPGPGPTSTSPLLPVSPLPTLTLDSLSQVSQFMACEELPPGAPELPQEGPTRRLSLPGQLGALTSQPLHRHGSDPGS
Consider `COc1ccc(N=C2O/C(=C/c3sc(=S)n(CC4CCCO4)c3O)N=C2C#N)cc1` (stereo not shown), for which the “hERG current change (%, negative = inhibition) at 10uM” value is 7.37%.

As for `O=C(O)C1=C[C@H](c2ccccc2)C[C@H](OCCCCO)O1`, the “hERG current change (%, negative = inhibition) at 10uM” value was 0.325%.

Consider `CCCNC(=O)C(=O)Nc1ccc(N(C)C)cc1`, for which the “hERG current change (%, negative = inhibition) at 10uM” value is 15.5%.

Regarding `O=C(NNC(=O)c1ccc(Br)o1)c1ccc(NC(=O)c2ccccc2)cc1`, the “hERG current change (%, negative = inhibition) at 10uM” value worked out at 31.9%.

For the compound `CSc1oc(-c2ccccc2)nc1S(=O)(=O)c1ccc(C)cc1`, the “hERG current change (%, negative = inhibition) at 10uM” value is on record as 12.5%.

With `Cc1ccc(-n2c(Cc3ccccc3)n[nH]c2=S)cc1`, the “hERG current change (%, negative = inhibition) at 10uM” value turned out to be 3.31%.

On to `CCC(C)N=Cc1c(Nc2ccccc2)nc2c(C)cccn2c1=O` (stereo not shown), for which the “hERG current change (%, negative = inhibition) at 10uM” value is listed as 17.6%.

For `Cc1ccc(SCC(=O)OCC(=O)NCc2cccs2)cc1C`, the “hERG current change (%, negative = inhibition) at 10uM” value stood at 14.8%.

Regarding `CCOc1cc(C(N)=O)cc(Br)c1OCC`, the “hERG current change (%, negative = inhibition) at 10uM” value is 1.1%.

As for `Cn1nnc(NC(=S)NC(=O)c2ccc(-c3ccc(Br)cc3)o2)n1`, the “hERG current change (%, negative = inhibition) at 10uM” value is 2.51%.

With `O=C(OCc1nc2ccccc2[n+]([O-])c1C(=O)c1ccccc1)c1cccnc1`, the “hERG current change (%, negative = inhibition) at 10uM” value was -2.05%.

Regarding `O=S(=O)(NCCOCC(F)(F)C(F)F)c1ccc2oc3ccccc3c2c1`, the “hERG current change (%, negative = inhibition) at 10uM” value was -8.11%.

For the compound `COC(=O)C1Cc2c([nH]c3ccccc23)C(C(C)C)N1` (stereo not shown), the “hERG current change (%, negative = inhibition) at 10uM” value is given as -12.4%.

Turning to `CSCCC1NC(=O)N(CC(=O)Nc2c(Cl)cc(Cl)cc2Cl)C1=O` (stereo not shown), the “hERG current change (%, negative = inhibition) at 10uM” value is reported as -2.68%.

As to `CCN(CC)CCN(Cc1cc2cc3c(cc2[nH]c1=O)OCCO3)C(=S)NCCCOC`, the “hERG current change (%, negative = inhibition) at 10uM” value turned out to be 12.6%.

Turning to `c1ccc(COCCN2CCN(CCOCc3ccccc3)CC2)cc1`, the “hERG current change (%, negative = inhibition) at 10uM” value is -39.5%.

On to `CCS(=O)(=O)N1Cc2ccccc2CC1C(=O)Nc1ccc(OC)c(OC)c1` (stereo not shown), for which the “hERG current change (%, negative = inhibition) at 10uM” value was -6.57%.

For the compound `COc1ccccc1N(CC(=O)Nc1ccc(S(=O)(=O)N2CCCCC2)cc1)S(C)(=O)=O`, the “hERG current change (%, negative = inhibition) at 10uM” value is listed as -11.2%.

In the case of `Cc1nc2ncnn2c(N2CCN(C(=O)c3cccc(F)c3)CC2)c1C`, the “hERG current change (%, negative = inhibition) at 10uM” value is on record as -49.3%.

For the compound `C=C(C)C1CC=C(C)/C(=N/NC(=O)CNc2ccc(OCC)cc2)C1` (stereo not shown), the “hERG current change (%, negative = inhibition) at 10uM” value is reported as -4.96%.

For the compound `CC(Cl)C(=O)c1c(N)n(C)c(=O)n(C)c1=O` (stereo not shown), the “hERG current change (%, negative = inhibition) at 10uM” value is recorded as -0.00142%.

On to `COC(=O)c1ccc(NC(=O)Nc2ccc(OC)c(OC)c2)cc1`, for which the “hERG current change (%, negative = inhibition) at 10uM” value was determined as 21.6%.

Consider `O=C(O)c1ccccc1C(=O)Nc1ccc(-n2nccc2C(F)(F)F)cc1`, for which the “hERG current change (%, negative = inhibition) at 10uM” value was found to be 17.5%.

Regarding `Nc1nc(=S)[nH]c2c1C1(CCCC1)Cc1ccccc1-2`, the “hERG current change (%, negative = inhibition) at 10uM” value turned out to be 10.3%.

As for `CCOC(=O)C1=NN(C(C)=O)C2(CC(=O)N(c3cccc(C)c3)C2=O)C1` (stereo not shown), the “hERG current change (%, negative = inhibition) at 10uM” value turned out to be 11%.
